This is an account of results in the supplement of paper PMC12217912.

The list shows a part of the results. Sequences were assembled here from the parent chain. Inactive controls read about 0.05.

The chains are these.
B1: TEV protease; numbered along this chain (parent)
chain: MGESLFKGPRDYNPISSSICHLTNESDGHTTSLYGIGFGPFIITNKHLFRRNNGTLVVQSLHGVFKVKDTTTLQQHLVDGRDMIIIRMPKDFPPFPQKLKFREPQREERICLVTTNFQTKSMSSMVSDTSCTFPSGDGIFWKHWIQTKDGQCGSPLVSTRDGFIVGIHSASNFTNTNNYFTSVPKNFMELLTNQEAQQWVSGWRLNADSVLWGGHKVFMVKPEEPFQPVKEATQL

The experiment covers variants of B1. Put plainly: raw area under fraction-flipped curve 0-4 h after induction (AUC4h, not background-subtracted), DNA-recorder readout of cleavage of the substrate (dimensionless); higher = more cleavage of the substrate by the protease variant. Conditions: temperature: 34 °C; time window: 0-4 h after rhamnose induction. As to the method: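 In vivo DNA recorder in E. coli TOP10(DE3) ΔrhaA at 34 °C. Each TEVp single-site mutant (parent TEVp 0) is paired with a single-site variant of the 7-mer TEVs (canonical ENLYFQ|S). The substrate sits between flexible linkers in a Bxb1-sfGFP-TEVs-SsrA fusion, so cleavage stabilises Bxb1 and speeds flipping of a recombination array, read by NGS. The value is the raw area under the fraction-flipped curve over 0-4 h after rhamnose induction (AUC4h), with ≥20 reads per time point. It is not background-subtracted; inactive controls average about 0.047.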
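Further: Bxb1 expression induced with 0.2% (w/v) L-rhamnose at OD600 near 0.5, cultures sampled hourly, flipped fraction per protease–substrate barcode pair counted by paired-end Illumina sequencing.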

For the variant MGESLFKGPRDYNPISSSICHLTNESDGHTTSLYGIGFGPFIITNKHLFRRNNGTLVVQSLHGVFKVKDTTTLQQHLVDGRDMIIIRMPKDFPPFPQKLKFREPQREERICLVTTNFQTKSMSSMVSDTSCTFPSGDGIFWKHWIQTKDGQCGSPLVSTRDGFIVGIHSASNFTNTNNYFTSVPKNPMELLTNQEAQQWVSGWRLNADSVLWGGHKVFMVKPEEPFQPVKEATQL [F187P], the “area with substrate ENLYAQS” value stood at 0.105, the “area with substrate ENLYDQS” value stood at 0.0563, the “area with substrate ENLYEQS” value turned out to be 0.0495 and the “area with substrate ENLYGQS” value was determined as 0.0525. For the same variant, the “area with substrate ENLYHQS” value amounted to 0.061, the “area with substrate ENLYIQS” value turned out to be 0.0443, the “area with substrate ENLYKQS” value stood at 0.0552 and the “area with substrate ENLYMQS” value was 0.0494. Moreover, the “area with substrate ENLYNQS” value came to 0.0474, the “area with substrate ENLYPQS” value stood at 0.0064, the “area with substrate ENLYQQS” value turned out to be 0.0557 and the “area with substrate ENLYSQS” value turned out to be 0.048. The “area with substrate ENLYVQS” value stood at 0.0563 and the “area with substrate ENLYWQS” value was determined as 0.0461.

Take MGESLFKGPRDYNPISSSICHLTNESDGHTTSLYGIGFGPFIITNKHLFRRNNGTLVVQSLHGVFKVKDTTTLQQHLVDGRDMIIIRMPKDFPPFPQKLKFREPQREERICLVTTNFQTKSMSSMVSDTSCTFPSGDGIFWKHWIQTKDGQCGSPLVSTRDGFIVGIHSASNFTNTNNYFTSVPKNFMELLTNQEAQQWVSFWRLNADSVLWGGHKVFMVKPEEPFQPVKEATQL [G202F]: the “area with substrate ENLYAQS” value is 0.0606, the “area with substrate ENLYDQS” value worked out at 0.0545, the “area with substrate ENLYEQS” value came out at 0.0581 and the “area with substrate ENLYHQS” value was 0.0573. Besides, the “area with substrate ENLYKQS” value was 0.0574, the “area with substrate ENLYMQS” value was 0.0714, the “area with substrate ENLYNQS” value worked out at 0.0542 and the “area with substrate ENLYQQS” value was found to be 0.054. Besides, the “area with substrate ENLYRQS” value was determined as 0.0442, the “area with substrate ENLYSQS” value was 0.0578, the “area with substrate ENLYTQS” value worked out at 0.0727 and the “area with substrate ENLYYQS” value is 0.0664.

Turning to MGESLFKGPRDYNPISSSICHLTNESDGHTTSLYGIGFGPFIITNKHLFRRNNGTLVVQSLHGVFKVKDTTTLQQHLVDGRDMIIIRMPKDFPPFPQKLKFREPQREERICLVTTNFQTKSMSSMVSDTSCTFPSGDGIFWKHWIQTKDGQCGSPLVSTRDGFIVGIHSASNFTNTNNYFTSVPKNFMELLTNQEAQQWVSGWRLNAFSVLWGGHKVFMVKPEEPFQPVKEATQL [D208F], the “area with substrate ENLYAQS” value was found to be 0.0684, the “area with substrate ENLYDQS” value amounted to 0.0591, the “area with substrate ENLYEQS” value turned out to be 0.0647 and the “area with substrate ENLYHQS” value is 0.0361. The “area with substrate ENLYIQS” value is 0.0706, the “area with substrate ENLYKQS” value came out at 0.0612, the “area with substrate ENLYLQS” value was 0.0392 and the “area with substrate ENLYMQS” value is 0.0377. In addition, the “area with substrate ENLYNQS” value came out at 0.0663, the “area with substrate ENLYPQS” value turned out to be 0.0665, the “area with substrate ENLYRQS” value came to 0.059 and the “area with substrate ENLYSQS” value was 0.0611. The “area with substrate ENLYVQS” value was 0.0599 and the “area with substrate ENLYWQS” value is 0.0531.

Consider MGESLFKGPRDYNPISSSICHLTNESDGHTTSLYGIGFGPFIITNKHLFRRNNGTLVVQSLHGVFKVKDTTTLQQHLVDGRDMIIIRMPKDFPPFPQKLKFREPQREERICLVTTNFQTKSMSSMVSDTSCTFPSGDGIFWKHWIQTKDGQCGSPLVSTRDGFIVGIHSASNFTNTNNYFTSVPKNFMELLTNQEAQQWVSGWRLNAWSVLWGGHKVFMVKPEEPFQPVKEATQL [D208W], for which the “area with substrate ENLYAQS” value was determined as 0.0564, the “area with substrate ENLYDQS” value amounted to 0.0644, the “area with substrate ENLYEQS” value amounted to 0.0586 and the “area with substrate ENLYHQS” value came to 0.0586. Also, the “area with substrate ENLYIQS” value stood at 0.057, the “area with substrate ENLYKQS” value stood at 0.0555, the “area with substrate ENLYLQS” value was found to be 0.0545 and the “area with substrate ENLYMQS” value stood at 0.0525. Moreover, the “area with substrate ENLYNQS” value turned out to be 0.0534, the “area with substrate ENLYPQS” value was 0.0522, the “area with substrate ENLYQQS” value amounted to 0.0633 and the “area with substrate ENLYRQS” value came to 0.0648. The “area with substrate ENLYSQS” value was 0.0687, the “area with substrate ENLYVQS” value worked out at 0.0745 and the “area with substrate ENLYWQS” value amounted to 0.0703.

Regarding MGESLFKGPRDYNPISSSICHLTNESDGHTTSLYGIGFGPFIITNKHLFRRNNGTLVVQSLHGVFKVKDTTTLQQHLVDGRDMIIIRMPKDFPPFPQKLKFREPQREERICLVTTNFQTKSMSSMVSDTSCTFPSGDGIFWKHWIQTKDGQCGSPLVSTRDGFIVGIHSASNFTNTNNYFTSVYKNFMELLTNQEAQQWVSGWRLNADSVLWGGHKVFMVKPEEPFQPVKEATQL [P184Y], the “area with substrate ENLYAQS” value came to 0.0693, the “area with substrate ENLYEQS” value amounted to 0.0565, the “area with substrate ENLYGQS” value was 0.0521 and the “area with substrate ENLYHQS” value came out at 0.0511. Further, the “area with substrate ENLYIQS” value amounted to 0.0547, the “area with substrate ENLYLQS” value was found to be 0.0774, the “area with substrate ENLYNQS” value was 0.0752 and the “area with substrate ENLYPQS” value was 0.0612. For the same variant, the “area with substrate ENLYSQS” value came to 0.0613 and the “area with substrate ENLYVQS” value was 0.0381.

Take MGESLFKGPRDYNPISSSICHLTNESDGHTTSLYGIGFGPFIITNKHLFRRNNGTLVVQSLHGVFKVKDTTTLQQHLVDGRDMIIIRMPKDFPPFPQKLKFREPQREERICLVTTNFQTKSMSSMVSDTSCTFPSGDGIFWKHWIQTKDGQCGSPLVSTRDGFIVGIHSASNFTNTNNYFTSVAKNFMELLTNQEAQQWVSGWRLNADSVLWGGHKVFMVKPEEPFQPVKEATQL [P184A]: the “area with substrate ENLYAQS” value was 0.0784, the “area with substrate ENLYEQS” value was found to be 0.0607, the “area with substrate ENLYGQS” value was 0.0575 and the “area with substrate ENLYHQS” value came out at 0.0649. Also, the “area with substrate ENLYIQS” value is 0.108, the “area with substrate ENLYKQS” value was determined as 0.0494, the “area with substrate ENLYLQS” value was 0.0686 and the “area with substrate ENLYMQS” value turned out to be 0.0498. Moreover, the “area with substrate ENLYNQS” value turned out to be 0.0623, the “area with substrate ENLYPQS” value turned out to be 0.0588, the “area with substrate ENLYQQS” value was found to be 0.0648 and the “area with substrate ENLYRQS” value came to 0.0618. Besides, the “area with substrate ENLYSQS” value was found to be 0.076, the “area with substrate ENLYTQS” value was determined as 0.0718, the “area with substrate ENLYVQS” value is 0.1 and the “area with substrate ENLYWQS” value was 0.0722. The “area with substrate ENLYYQS” value came out at 0.0306.

As to MGESLFKGPRDYNPISSSICHLTNESDGHTTSLYGIGFGPFIITNKHLFRRNNGTLVVQSLHGVFKVKDTTTLQQHLVDGRDMIIIRMPKDFPPFPQKLKFREPQREERICLVTTNFQTKSMSSMVSDTSCTFPSGDGIFWKHWIQTKDGQCGSPLVSTRDGFIVGIHSASNFTNTNNYFTSVPKAFMELLTNQEAQQWVSGWRLNADSVLWGGHKVFMVKPEEPFQPVKEATQL [N186A], the “area with substrate ENLYAQS” value stood at 0.0816, the “area with substrate ENLYDQS” value was 0.0559, the “area with substrate ENLYEQS” value came out at 0.0676 and the “area with substrate ENLYRQS” value stood at 0.0612.

As for MGESLFKGPRDYNPISSSICHLTNESDGHTTSLYGIGFGPFIITNKHLFRRNNGTLVVQSLHGVFKVKDTTTLQQHLVDGRDMIIIRMPKDFPPFPQKLKFREPQREERICLVTTNFQTKSMSSMVSDTSCTFPSGDGIFWKHWIQTKDGQCGSPLVSTRDGFIVGIHSASNFTNTNNYFTSVPKVFMELLTNQEAQQWVSGWRLNADSVLWGGHKVFMVKPEEPFQPVKEATQL [N186V], the “area with substrate ENLYAQS” value was 0.0593, the “area with substrate ENLYDQS” value was found to be 0.0595, the “area with substrate ENLYEQS” value turned out to be 0.048 and the “area with substrate ENLYIQS” value came to 0.0998. The “area with substrate ENLYNQS” value turned out to be 0.0614, the “area with substrate ENLYPQS” value turned out to be 0.0681, the “area with substrate ENLYRQS” value amounted to 0.0609 and the “area with substrate ENLYWQS” value worked out at 0.072. In addition, the “area with substrate ENLYYQS” value was 0.0716.

With MGESLFKGPRDYNPISSSICHLTNESDGHTTSLYGIGFGPFIITNKHLFRRNNGTLVVQSLHGVFKVKDTTTLQQHLVDGRDMIIIRMPKDFPPFPQKLKFREPQREERICLVTTNFQTKSMSSMVSDTSCTFPSGDGIFWKHWIQTKDGQCGSPLVSTRDGFIVGIHSASNFTNTNNYFTSVPKNFMELCTNQEAQQWVSGWRLNADSVLWGGHKVFMVKPEEPFQPVKEATQL [L191C], the “area with substrate ENLYAQS” value was determined as 0.06, the “area with substrate ENLYDQS” value came out at 0.0679, the “area with substrate ENLYEQS” value is 0.0686 and the “area with substrate ENLYGQS” value came to 0.064. The “area with substrate ENLYHQS” value was determined as 0.0621, the “area with substrate ENLYIQS” value stood at 0.096, the “area with substrate ENLYKQS” value was determined as 0.066 and the “area with substrate ENLYNQS” value was found to be 0.0596. The “area with substrate ENLYPQS” value is 0.0699, the “area with substrate ENLYQQS” value is 0.0551, the “area with substrate ENLYRQS” value was determined as 0.0655 and the “area with substrate ENLYSQS” value came to 0.103. Further, the “area with substrate ENLYTQS” value was 0.0659, the “area with substrate ENLYVQS” value was found to be 0.0978, the “area with substrate ENLYWQS” value was determined as 0.0812 and the “area with substrate ENLYYQS” value was 0.0545.

On to MGESLFKGPRDYNPISSSICHLTNESDGHTTSLYGIGFGPFIITNKHLFRRNNGTLVVQSLHGVFKVKDTTTLQQHLVDGRDMIIIRMPKDFPPFPQKLKFREPQREERICLVTTNFQTKSMSSMVSDTSCTFPSGDGIFWKHWIQTKDGQCGSPLVSTRDGFIVGIHSASNFTNTNNMFTSVPKNFMELLTNQEAQQWVSGWRLNADSVLWGGHKVFMVKPEEPFQPVKEATQL [Y179M], for which the “area with substrate ENLYAQS” value is 0.0565, the “area with substrate ENLYDQS” value turned out to be 0.0392, the “area with substrate ENLYEQS” value was found to be 0.0521 and the “area with substrate ENLYHQS” value came to 0.0468. For the same variant, the “area with substrate ENLYIQS” value amounted to 0.0561, the “area with substrate ENLYKQS” value amounted to 0.0295, the “area with substrate ENLYLQS” value amounted to 0.0433 and the “area with substrate ENLYMQS” value came to 0.0507. Further, the “area with substrate ENLYPQS” value amounted to 0.0574, the “area with substrate ENLYQQS” value was determined as 0.0511, the “area with substrate ENLYRQS” value turned out to be 0.0593 and the “area with substrate ENLYVQS” value turned out to be 0.0732.
